From PubChem BioAssay AID1346428 (National Center for Advancing Translational Sciences (NCATS), 2018)
“And” between values parts separate entries of the source, which are not always exact repeats. Equal entries are not always repeated. In all, about 48,000 compounds went through this assay and about 1,200 (2.5%) were called active. About 2% were inconclusive and are not listed.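 How the source made its calls: active means activation of at least 60% and not above a set upper limit (about 1 call in 100 departs from these limits); inconclusive means activation of 40% to 60%, or above that upper limit; inactive means activation under 40%.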 The list shows a part of the results. Where a structure was tested more than once in an assay, its records may differ in their call.

These compounds were tested against Probable G-protein coupled receptor 32 (Homo sapiens) (UniProt O75388) (assay: qHTS for Agonists of Human Resolvin D1 Receptor DRV1). Settings: CHO-K1 GPR32 beta-arrestin PathHunter luminescence, 90 min; at 76.9 µM; stronger effect = higher value; zero percent set by DMSO-only wells.
Outline: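 PathHunter enzyme-fragment complementation, CHO-K1 GPR32 stable line; 2,500 cells/well, overnight attach; cpd 90 min 37 °C 5% CO2; detection reagent 1 h RT; chemiluminescence. DMSO = EC0.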
Further: 0% is about no effect.

Chain of UniProt O75388 (O75388 whole entry, looked up, the tested form may be a part): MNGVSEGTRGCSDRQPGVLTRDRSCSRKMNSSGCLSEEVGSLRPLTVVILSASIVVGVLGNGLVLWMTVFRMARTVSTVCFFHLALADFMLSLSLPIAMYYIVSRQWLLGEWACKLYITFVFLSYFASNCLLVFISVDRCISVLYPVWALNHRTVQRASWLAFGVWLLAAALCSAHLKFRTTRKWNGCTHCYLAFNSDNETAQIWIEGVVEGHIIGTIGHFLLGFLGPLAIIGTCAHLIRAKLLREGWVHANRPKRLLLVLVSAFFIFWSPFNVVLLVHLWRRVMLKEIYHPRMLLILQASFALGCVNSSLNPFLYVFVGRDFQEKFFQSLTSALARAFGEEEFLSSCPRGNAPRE

| SMILES | activation |
| --- | --- |
| C[C@]12Cc3nonc3C[C@@H]1CC[C@@H]1[C@@H]2CC[C@@]2(C)[C@H]1CC[C@]2(C)O | active: 65.4% |
| C=C1CC[C@@]2(O)[C@H]3Cc4ccc(O)c5c4[C@@]2(CCN3CC2CC2)[C@H]1O5 | inactive: 8.58% |
| O=C(COc1ccccc1[N+](=O)[O-])N1CCN(CCc2ccccn2)CC1 | inactive: 0.254% |
| Cc1ccccc1-n1c(/C=C/c2ccccc2F)nc2ccccc2c1=O | inactive: -19.6% |
| O=C(Nc1ccccc1C(F)(F)F)c1cccn(Cc2ccccc2)c1=O | inactive: -1.22% |
| Cc1ncsc1CCCl | inactive: 31.2% and inactive: 12.4% |
| CCCCCCC(C)(C)c1ccc([C@@H]2C[C@H](O)CC[C@H]2CCCO)c(O)c1 | inactive: -1.29% |
| C[C@]12Cc3cn[nH]c3C[C@@H]1CC[C@@H]1[C@@H]2CC[C@@]2(C)[C@H]1CC[C@]2(C)O | inactive: -36.4% |
| CC(O)(CS(=O)(=O)c1ccc(F)cc1)C(=O)Nc1ccc(C#N)c(C(F)(F)F)c1 (stereo not drawn) | inactive: 8.2% |
| C=CCN1CC[C@]23c4c5ccc(O)c4O[C@@H]2/C(=N/N=C2\CC[C@@]4(O)C6Cc7ccc(O)c8c7[C@@]4(CCN6CC=C)[C@@H]2O8)CC[C@@]3(O)C1C5 | inactive: -15.2% |
| CC1=C(C(=O)O)N2C(=O)[C@@H](N)[C@H]2SC1 | inactive: -12.7% |
| CCCn1c(=O)c2[nH]c(C3CCCC3)nc2n(CCCOC(=O)c2ccc(S(=O)(=O)F)cc2)c1=O | inactive: -23.7% |
| CNC(=O)Oc1cccc2ccccc12 | inactive: 5.17% |
| N#Cc1cc2c(nc1SCC(=O)Nc1ccc(Cl)c(C(F)(F)F)c1)C1CCN2CC1 | inactive: -5.41% |
| CCOC(=O)c1cncn1C(C)c1ccccc1 (stereo not drawn) | inactive: -10.6% |
| CC(C)c1cccc(C(C)C)c1O | inactive: 14.7% and inactive: -15.8% |
| Clc1ccc(COC(Cn2ccnc2)c2ccc(Cl)cc2Cl)cc1 (stereo not drawn) | inactive: -65.6% |
| CC#C[C@]1(O)CC[C@H]2[C@@H]3C[C@H](C)C4=CC(=O)CC[C@]4(C)[C@H]3CC[C@@]21C | inactive: 2% |
| CC(=O)[C@H]1CCC2C3CC[C@H]4C[C@H](O)CC[C@]4(C)C3CC[C@@]21C (stereo partly drawn) | inactive: 1.31% |
| Cc1ccc(CNC(=O)CCCn2c(=O)c3sccc3n(CC(=O)Nc3c(C)cccc3C)c2=O)cc1 | inactive: -20% |
| Cc1ccc(Cn2cccc(C(=O)Nc3ccc(C)c(Cl)c3)c2=O)cc1 | inactive: 21.8% |
| CCN[C@H](C)Cc1cccc(C(F)(F)F)c1 | inactive: -45.1% |

| SMILES | activation |
| --- | --- |
| COc1ccc(C2CC(=O)Oc3c2c(=O)oc2ccccc32)c(OC)c1OC (stereo not drawn) | inactive: 15.3% |
| CCCCCCCCCC(=O)O[C@H]1CC[C@H]2[C@@H]3CCC4=CC(=O)CC[C@@H]4[C@H]3CC[C@]12C | inactive: -45.1% |
| CCCCCCCCCCCCCCCC[N+](C)(C)C | inactive: -5.38% |
| CN1C[C@H](CNC(=O)OCc2ccccc2)C[C@@H]2c3cccc4c3c(cn4C)C[C@H]21 | active: 79.5% and inactive: -22.2% |
| Cc1cccc(-n2c(/C=C\c3cccc(Br)c3)nc3ccccc3c2=O)c1 | inactive: -7.53% |
| CCN1C[C@@]2(COC)C3[C@@H](OC)C4[C@@H]1C3([C@@H]1C[C@]3(O)[C@H](OC(=O)c5ccccc5)[C@@H]1[C@]4(OC(C)=O)[C@@H](O)[C@@H]3OC)[C@H](OC)C[C@H]2O | inactive: 7.01% |
| Cc1cc(OCC(=O)N2CCN(CCc3ccncc3)CC2)cc(C)c1Cl | inactive: 27.7% |
| O=C1NCN(c2ccccc2)C12CCN(CCCOc1ccc(F)cc1)CC2 | inactive: -9.08% |
| O=C(O)CC[N+](=O)[O-] | inactive: -0.343% |
| OCc1cnc[nH]1 | inactive: 13.2% |
| CN1CCC(N(Cc2ccccc2)c2ccccc2)CC1 | inactive: -8.93% |
| C[C@@H]1O[C@@H](O[C@H]2C[C@@H](O)[C@]3(CO)[C@@H]4C(CC[C@]3(O)C2)[C@@]2(O)CC[C@H]([C@@H]3COC(=O)C3)[C@@]2(C)C[C@H]4O)[C@H](O)[C@H](O)[C@H]1O (stereo partly drawn) | inactive: 15% |
| COc1ccc(OC)c(CCNCc2c(C(=O)O)c(C)n(Cc3ccc(F)cc3Cl)c2C)c1 | inactive: -12.7% |
| C[CH2][Hg][S]c1ccccc1C(=O)O | inactive: 35.9% |
| COc1ccc2c(c1OC)CN1CCc3cc4c(cc3C1C2)OCO4 (stereo not drawn) | active: 68.5% |
| Cc1oc2cc3oc(=O)c(CCC(=O)N4CCCCC4)c(C)c3cc2c1C | active: 86.7% |
| COP(=S)(OC)Oc1ccc(S(=O)(=O)N(C)C)cc1 | inactive: -2.76% |
| CCOc1ccc(CN(CCc2ccc3c(c2)OCO3)Cc2ccc(CC)cc2)cc1 | inactive: -44.1% |
| CC[C@@H](CO)NC(=O)[C@@H]1C=C2c3cccc4c3c(cn4C)C[C@H]2N(C)C1 | inactive: -7.35% and inactive: 0.204% |
| COc1ccccc1CN1CCN(C(=O)COc2cccc(C)c2)CC1 | inactive: -12.5% |
| COc1ccc(NC(=O)CN2C(=O)CN=C(c3ccccc3)c3ccccc32)c(OC)c1 | inactive: -31.4% |
| COc1ccc2c(c1)[C@@]13CCCC[C@H]1[C@@H](C2)NCC3 | inactive: -13.9% |

| SMILES | activation |
| --- | --- |
| Cc1ccccc1-n1nc(C)c2c1NC(=O)CSC2c1ccccc1C(F)(F)F (stereo not drawn) | inactive: 13.4% |
| c1ccc(CN2CCNCC2)cc1 | inactive: -11.5% |
| Cc1cc([C@@H]2CCCN2C)on1 | inactive: -2.26% |
| CN1C(=O)CN=C(c2ccccc2)c2cc(Cl)ccc21 | inactive: -8.3% |
| CC(Cc1ccccc1)NCc1ccccc1Cl (stereo not drawn) | inactive: 23.2% |
| C[C@]12CC[C@H](O)CC1=CC[C@@H]1[C@@H]2CC[C@]2(C)C(=O)CC[C@@H]12 | active: 72.8% |
| c1ccc2c(c1)OCC(C1=NCCN1)O2 (stereo not drawn) | inactive: 30.4% and inactive: -15.2% |
| O=C(COc1ccccc1Cl)N1CCN(CCc2ccccn2)CC1 | inactive: 1.02% |
| CCOc1ccc(CN(CCc2ccc3c(c2)OCO3)Cc2cccc(Br)c2)cc1 | inactive: -36.7% |
| Nc1ccc([N+](=O)[O-])cc1 | inactive: -34.8% |
| CCCN(CCC)[C@H]1CCc2c(F)ccc(O)c2C1 | inactive: -4.33% |
| Cc1nnc2n1-c1sc(CCC(=O)N3CCOCC3)cc1C(c1ccccc1Cl)=NC2 | inactive: -5.79% |
| CCCc1nc(SC)ncc1C(=O)Nc1ccc(Cl)cc1C(=O)c1ccccc1 | inactive: -3.38% |
| C/C=C(/C)C(=O)O[C@H]1C(C)=C2[C@H]([C@@H]1OC(=O)CCCCCCC)[C@@](C)(OC(C)=O)C[C@H](OC(=O)CCC)[C@@]1(O)[C@H]2OC(=O)[C@@]1(C)O | inactive: -37% |
| CC[N+]1(C)CCCC(OC(=O)C(O)(c2ccccc2)c2ccccc2)C1 (stereo not drawn) | inactive: -8.83% |
| O=C(Nc1nc2ccccc2s1)c1cccn(Cc2ccccc2)c1=O | inactive: -2.96% |
| CC(Cc1ccccc1)N(C)Cc1ccco1 (stereo not drawn) | inactive: 2.13% |
| CN(C)CCc1c[nH]c2ccccc12 | inactive: -1.57% |
| Cc1cccc(OC(C)C(=O)NCC2(N(C)C)CCCCC2)c1C (stereo not drawn) | inactive: 1.63% |
| Cc1nnc(NC(=O)c2cccn(Cc3ccccc3)c2=O)s1 | inactive: 21.5% |
| c1ccc2cc(CC3=NCCN3)ccc2c1 | inactive: -9.71% |
| C[C@]12CC[C@H]3[C@@H](CCC4=CC(=O)CC[C@@H]43)[C@@H]1CC[C@@H]2OC(=O)CCc1ccco1 | active: 119% |

| SMILES | activation |
| --- | --- |
| COP(=S)(OC)Oc1ccc(Sc2ccc(OP(=S)(OC)OC)cc2)cc1 | inactive: 5.4% |
| CCCCCCC(=O)CCCCCC/C=C/C[C@@H](O)[C@H](O)[C@@](N)(CO)C(=O)O | inactive: 6.21% |
| O=C(Nc1ccc(F)c([N+](=O)[O-])c1)c1cccn(Cc2ccccc2)c1=O | inactive: -0.362% |
| Cc1cccc(OCC(=O)N2CCN(CCc3ccccn3)CC2)c1 | inactive: 5.12% |
| Cc1ccc(-n2c(=O)[nH]c3ccc(Br)cc3c2=O)cc1 | inactive: -62.9% |
| CC1(C)CC/C(=C/c2ccc(Cl)cc2)C1(O)Cn1cncn1 (stereo not drawn) | inactive: 20.9% |
| COc1ccc2c(c1OC)C(=O)O[C@H]2[C@@H]1c2cc3c(cc2CCN1C)OCO3 | inactive: -3.73% and inactive: 8.64% |
| CCCN1CCO[C@@H]2c3cc(O)ccc3OC[C@H]21 | inactive: -7.02% and inactive: -15.8% |
| CC(=O)NC1CCSC1=O (stereo not drawn) | inactive: -35.9% |
| O=C(COc1ccccc1F)N1CCN(Cc2cc(=O)n3nc(-c4ccccc4Cl)sc3n2)CC1 | inactive: -10.1% |
| CCN(CC)CCN1C(=O)CN=C(c2ccccc2F)c2cc(Cl)ccc21 | inactive: 7.02% |
| O=C(O)[C@@H]1CCN1 | inactive: 6.43% |
| O=C(NC(O)C(Cl)(Cl)Cl)NC(O)C(Cl)(Cl)Cl (stereo not drawn) | inactive: 11.9% |
| Cc1ccc2c(c1)C(Cc1nc3ccccc3c(=O)n1-c1ccc(Br)cc1)C(=O)N2 (stereo not drawn) | inactive: -20.5% |
| Oc1ccccc1-c1ccccc1 | inactive: 2.58% |
| COc1ccc(NC(=O)c2sc3nc4c(cc3c2N)N2CCC4CC2)cc1OC | inactive: 45.2% |
| CCCCCCCCCC(CC)c1ccc(S(=O)(=O)O)cc1 (stereo not drawn) | active: 101% |
| Cc1cccc(CN2CC=C(c3noc(CCC(=O)Nc4ccc(C)c(F)c4)n3)CC2)c1 | active: 93.6% |
| CN1C2CCC1CC(OC(=O)c1cc(Cl)cc(Cl)c1)C2 (stereo not drawn) | inactive: -10.8% |
| O=C(O)Cc1cnc[nH]1 | inactive: 2.79% |
| c1ccc2c(c1)sc1ccccc12 | inactive: -22.3% |
| CC(C)(C)CC(C)(C)c1ccc(O)cc1 | active: 116% |
